Reference: PMC6919601, “Identification of Plasmodium dipeptidyl aminopeptidase allosteric inhibitors by high throughput screening” (PLoS ONE, 2019)
In all, about 110,000 compounds went through this assay and about 230 (0.21%) showed an effect of 50% or more. This is one part of the list.

Molecular target: DPAP1 (Plasmodium falciparum, UniProt Q8IIJ9)
Test: primary screen, percent inhibition; read by cleavage of a fluorogenic dipeptide substrate; higher = more effect of the substance
Design: species or system P. falciparum D10 trophozoite lysates; single well
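Note: 30 min substrate incubation versus DMSO and 10 µM JCP410 controls.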

DPAP1, sequence (Q8IIJ9 whole entry, looked up): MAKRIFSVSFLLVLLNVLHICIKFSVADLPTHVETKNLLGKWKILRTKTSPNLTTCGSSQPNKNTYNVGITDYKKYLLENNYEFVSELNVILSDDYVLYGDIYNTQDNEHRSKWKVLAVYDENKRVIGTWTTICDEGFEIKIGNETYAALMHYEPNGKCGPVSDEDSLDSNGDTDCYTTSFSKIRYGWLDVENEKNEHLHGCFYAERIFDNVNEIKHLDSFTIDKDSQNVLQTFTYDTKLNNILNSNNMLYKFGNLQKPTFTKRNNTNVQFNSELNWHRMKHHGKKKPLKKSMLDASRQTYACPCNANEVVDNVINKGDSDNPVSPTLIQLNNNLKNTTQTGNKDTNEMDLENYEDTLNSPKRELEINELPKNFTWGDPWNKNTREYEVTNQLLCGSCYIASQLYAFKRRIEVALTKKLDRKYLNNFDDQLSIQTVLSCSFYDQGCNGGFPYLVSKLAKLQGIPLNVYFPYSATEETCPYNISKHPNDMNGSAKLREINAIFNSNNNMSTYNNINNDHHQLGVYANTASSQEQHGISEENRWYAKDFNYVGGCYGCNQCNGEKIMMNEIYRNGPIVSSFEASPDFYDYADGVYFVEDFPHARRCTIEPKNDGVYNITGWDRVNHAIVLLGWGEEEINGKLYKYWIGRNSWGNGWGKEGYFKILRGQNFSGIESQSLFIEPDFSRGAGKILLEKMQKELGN

SMILES | % Inhibition @ 10 uM [%]
Cc1nc(=O)c(-c2ccccc2)c(C)n1CCCn1ccnc1 | 0.9
COc1cc(OC)cc(C(=O)Nc2nc(-c3nnn(-c4ccc(OC)c(Cl)c4)c3C)ns2)c1 | 6.03
CCc1ccccc1NC(=O)c1ccc(OC)c(OC)c1 | -4.11
C=C(C)CNC(=S)N1CCNCC1 | -0.902
CC(C)OCCCNC(=O)c1ccc(CNS(=O)(=O)c2ccc(Br)cc2)cc1 | 0.208
CC(C)OCCCNC(=O)Cn1cc2c(n1)CCCCC2 | 1.59
CCCCNc1nc2c(S(=O)(=O)c3cc(C)ccc3C)nnn2c2ccsc12 | -8.1
COc1c(C(=O)Nc2ccc(Br)cn2)ccc2ccccc12 | 0.0719
Nc1ccc(Cl)cc1C(O)c1ccccc1 (centres unmarked) | 0.132
Cc1[nH]c2ccccc2c1CCNC(=O)/C(=C/c1ccccc1)NC(=O)c1ccccc1 | 0.503
COC(=O)C1=C(C)N(C)C(=O)/C1=C\c1cccs1 | -1.66
CNC(=O)Cn1ncc2c(C)n(Cc3ccc(Cl)cc3)c(C)c2c1=O | 1.22
COc1cccc(-c2ccc3c(N)c(C(=O)Nc4ccc(F)cc4)sc3n2)c1 | 0.0504
O=C1CNC(=S)N1c1ccccc1 | -2.88
COCCNC(=S)N(CCc1c(C)[nH]c2ccc(F)cc12)Cc1ccccc1OC | 1.5
CCOCCCNC(=O)c1cc(Sc2ccc(OCC)cc2)nc2ccccc12 | -0.0542
Brc1ccc(CN2CCN(Cc3ccccc3)CC2)o1 | -4.5
CC(=O)/N=C(N)/N=c1\nc(C)c2ccc(C)cc2n1C(C)=O | 3.27
Cn1c(=O)c2ncn(CC(=O)Nc3ccc(N4CCOCC4)c(Cl)c3)c2n(C)c1=O | -13.5
O=C(NCCCN1CCOCC1)c1ccc(CS(=O)(=O)Cc2ccc(Cl)cc2)o1 | -1.34
CCCN1CCN(C(=O)Cn2c(-c3ccc(F)cc3)cc(C(=O)OCC)c2C)CC1 | 1.47
Cc1cc(O)c(C2=NCCSC(c3ccccc3)C2)c(=O)o1 (centres unmarked) | 2.5
CCC(Sc1nc2cccnc2[nH]1)C(=O)NCC1CCCO1 (centres unmarked) | 5.38
Cc1ccc(-c2nnc3c4cnn(-c5ccccc5)c4ncn23)cc1 | -0.386
CC1(C)CC(=O)C(C(c2ccccn2)c2c[nH]c3ccccc23)=C(O)C1 (centres unmarked) | -5.2

SMILES | % Inhibition @ 10 uM [%]
COc1ccc(-c2noc(CN(C3CCCCC3)S(=O)(=O)c3ccc(F)cc3)n2)cc1 | 2.14
c1ccc(CN2CCC(N3CCN(c4ccccc4)CC3)CC2)cc1 | 4.74
Cc1nc2sccn2c(=O)c1S(=O)(=O)NC1CCN(Cc2ccccc2)CC1 | 3.02
c1ccc(-c2nc3sc(-c4ccccc4)nc3s2)cc1 | 2.38
COC(=O)c1cc(S(=O)(=O)N2CCN(C3CCCCC3)CC2)c[nH]1 | 4.36
CN(C)C(=O)c1ccc2c(c1)C1C3CCC(C3)C1C(c1ccccc1)N2 (centres unmarked) | -3.5
CCn1cc(CCCC(=O)N2CCC3(CC2)OCCO3)c2ccccc21 | -1.67
CN(CC(O)CN1CCOCC1)S(=O)(=O)O (centres unmarked) | 6.31
N#C/C(=C\c1ccc(Cl)cc1Cl)c1nc(-c2ccc(-c3ccccc3)cc2)cs1 | -7.02
Clc1ccc(N2CCN(C3CCN(CCc4ccccc4)CC3)CC2)cc1 | -0.0908
O=C1CCCc2c1cc(C(=O)O)c(=O)n2-c1ccccc1 | 1.88
CCOc1cc2oc(=O)cc(-c3ccccc3)c2cc1Cl | 1.18
Cc1cccn2c(=O)c(/C=C(\C#N)C(=O)NC3CCS(=O)(=O)C3)c(Oc3ccc(Cl)cc3)nc12 (centres unmarked) | -3.23
COc1cc(C(=O)NCc2nnc(SCC(=O)N3CCOCC3)o2)cc(OC)c1OC | -7.21
CCN(c1nc(C)cc(OC)n1)S(=O)(=O)c1ccc(C)cc1 | -6.36
CC(=O)c1c(C)oc2ccc(N(C(C)=O)S(=O)(=O)c3ccc(F)cc3)cc12 | -2.8
Cc1c(C=O)c2ccccc2n1CC(=O)O | -4.35
O=[N+]([O-])c1ccc(OCCOCCO)cc1 | -1.02
CC1CCCN(S(=O)(=O)c2ccc3nc(O)cc(C(=O)NCC4COc5ccccc5O4)c3c2)C1 (centres unmarked) | -1.34
Cc1nn(C(=O)c2cccnc2)c(-c2ccccc2)c1Sc1ccccc1 | -9.24
O=C(O)COc1ccc(Cl)cc1C1C2=C(O)CCCC2=NC2=C1C(=O)CCC2 (centres unmarked) | 3.05
COc1ccc(CCC(C)NC2CCCCCCC2)cc1 (centres unmarked) | 2.99
Cc1ccc(NC(=O)c2cccc(OC(F)F)c2)cc1F | -1.88
COc1ccc(/C=C2\SC(=O)N(Cc3ccccc3)C2=O)c(OC)c1 | -1.35
COc1cccc(-n2nnc3c(=O)n(Cc4ccccc4C)cnc32)c1 | -5.79
